Experimental data published in PubChem BioAssay AID588795 (National Center for Advancing Translational Sciences (NCATS), 2011).
Values joined by “and” are separate entries in the source; they are usually repeats but may differ in a detail not shown here. Identical values can stand only once. About 1,400 (0.36%) of roughly 390,000 compounds were called active. This list was built around the results that the source calls inconclusive (neither active nor inactive); the mix of calls is not that of the screen. The call rests on the fitted dose curve; in most records, active means well fitted inhibition curve with a large enough effect; inconclusive means small, poorly fitted or top-dose-only effect; inactive means no such curve, though single readings can be large or run the other way. A potency beside an inconclusive call is a rough fit, not a confirmed value.

Molecular target: Flap endonuclease 1 (Homo sapiens) (UniProt P39748)
Assay: qHTS Assay for the Inhibitors of Human Flap endonuclease 1 (FEN1). Further: nearly all actives have a fitted effect of over 65% in size.
Conditions: Recombinant FEN1 flap cleavage, fluorescence, 15 min; series mostly up to 114 µM; activity change, negative = inhibition: at the top concentration
Procedure, shortened: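 FEN1 at 10 nM, compound pretreatment for 15 min (room temperature), 50 nM final substrate to initiate; endpoint reads at 0 and 15 min; DMSO-only plates used as vehicle background.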
On the % scale 0 is the no-effect control and ±100 the full control effect; potency means the concentration at half of the fitted maximal effect; tags describe the fitted curve by direction and shape.

Sequence of UniProt P39748 (P39748 whole entry, looked up): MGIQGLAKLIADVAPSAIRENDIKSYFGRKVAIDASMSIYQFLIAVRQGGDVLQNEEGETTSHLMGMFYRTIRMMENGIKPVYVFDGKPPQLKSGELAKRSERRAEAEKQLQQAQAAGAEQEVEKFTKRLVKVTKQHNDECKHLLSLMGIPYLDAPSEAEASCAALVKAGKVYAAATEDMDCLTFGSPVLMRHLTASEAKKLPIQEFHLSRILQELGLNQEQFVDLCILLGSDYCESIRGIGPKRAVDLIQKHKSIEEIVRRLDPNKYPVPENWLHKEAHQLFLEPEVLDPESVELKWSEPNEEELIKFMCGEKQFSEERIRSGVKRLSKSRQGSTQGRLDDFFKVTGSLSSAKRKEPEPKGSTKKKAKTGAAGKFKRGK

Row | SMILES | activity change, negative = inhibition | Potency
1 | CCOC(=O)c1c(NC(=O)C(C)Sc2cn(CCNC(=O)c3ccccc3OC)c3ccccc23)sc2c1CCC2 (stereo unspecified) | inactive: -2.36% | –
2 | Cc1c(O)ccc(/C=N/Nc2nc(-c3cccnc3)nc3ccccc23)c1O | – | inconclusive: 44.7 µM [inhibitor, partial curve, poor fit] and inconclusive: 31.6 µM [inhibitor, full curve]
3 | CC(=O)OCCNc1cc(SCc2ccco2)c2nonc2c1[N+](=O)[O-] | – | inconclusive: 15.8 µM [inhibitor, full curve]
4 | O=C(NCc1cccnc1)c1cc2nc(-c3ccc4c(c3)OCO4)cc(C(F)(F)F)n2n1 | inactive: -14.5% | –
5 | O=c1c2cn[nH]c2nc(SCc2ccccc2F)n1-c1ccc(Br)cc1 | – | inconclusive: 56.2 µM [inhibitor, partial curve, poor fit]
6 | CNC(=O)c1c(O)c2cccc3c2n(c1=O)CCC3 | inactive: -2.57% | –
7 | CSc1ccc(CNC(=O)CN2C(=O)C3CCCCN3c3ccc(C(=O)N4CCCC4)cc32)cc1 (stereo unspecified) | inactive: -1.34% | –
8 | O=C1c2cccc3cccc(c23)C(=O)N1c1ccc2ncccc2c1 | – | inconclusive: 50.1 µM [inhibitor, partial curve]
9 | Cc1[nH]c(=O)[nH]c(=O)c1Sc1ccccc1[N+](=O)[O-] | inactive: 1.81% | –
10 | COc1ccc(N(C(C)C(=O)N/N=C/c2ccc(OCC(C)C)cc2)S(C)(=O)=O)cc1 (stereo unspecified) | – | inconclusive: 50.1 µM [inhibitor, partial curve, poor fit]
11 | CCN(CC)C(=O)c1sc2c(c1C)c(=O)n(-c1ccc(C)c(C)c1)c(=O)n2Cc1cccc(Cl)c1 | – | inconclusive: 89.1 µM [inhibitor, single point]
12 | CC(=O)Nc1scc(C)c1-c1nc2ccccc2s1 | – | inconclusive: 5.62 µM [inhibitor, partial curve, poor fit]
13 | CCn1ccc2cc(S(=O)(=O)N3CCCN(C(=O)NCC(=O)OC)CC3)ccc21 | inactive: 0.368% | –
14 | CC(C)(C)c1cc[n+](C2=C([O-])c3ccccc3C(=O)/C2=N\S(=O)(=O)c2cccs2)cc1 | inactive: 6.33% | –
15 | Cc1ccc(C)c(OCCC(=O)Nc2ccc(S(=O)(=O)N3CCCC3)cc2)c1 | – | inconclusive: 39.8 µM [inhibitor, partial curve, poor fit]
16 | O=C(N/N=C/c1ccccc1Cl)c1[nH]c2ccc(Br)cc2c1-c1ccccc1 | – | inconclusive: 100 µM [inhibitor, partial curve, poor fit]
17 | Cc1nc(SC(C)C(=O)Nc2cccc(C(F)(F)F)c2)c2c(C)c(C(=O)O)sc2n1 (stereo unspecified) | – | inconclusive: 22.4 µM [inhibitor, partial curve]
18 | O=C(OCCc1ccccc1)c1cc(O)c(O)c(O)c1 | – | active: 39.8 µM
19 | COc1cc2oc3ccccc3c(=O)c2cc1OC | – | inconclusive: 35.5 µM [inhibitor, full curve]
20 | CCc1ccc(-n2c(=O)c3ccccc3n(Cc3ccccc3C#N)c2=O)cc1 | inactive: -0.766% | –
21 | CCCCn1c(=O)[nH]c(=O)c2c1nc(CN1C(=O)c3ccccc3S1(=O)=O)n2CCC | inactive: -3.72% | –
22 | O=c1c2c([N+](=O)[O-])cc([N+](=O)[O-])cc2sn1-c1ccc(Br)cc1 | inactive: -9.08% | –

Row | SMILES | activity change, negative = inhibition | Potency
23 | CSc1ccc(CCNC(=O)c2csc3c2CCCCC3)cc1 | inactive: 0.168% | –
24 | CN(C)c1ccc(CNC(=O)c2ccc3nc(Cc4ccccc4)oc3c2)cc1 | inactive: 0.94% | –
25 | C=CCn1c2ccccc2c2nnc(SCN3C(=O)c4ccccc4C3=O)nc21 | – | inconclusive: 8.91 µM [inhibitor, partial curve, poor fit]
26 | O=C(CSc1nnc(-c2ccco2)c(-c2ccco2)n1)c1ccccc1 | – | inconclusive: 50.1 µM [inhibitor, partial curve]
27 | COc1cc(Nc2nc(-c3ccc(OC)c(OC)c3)nc3ccccc23)cc(OC)c1 | – | inconclusive: 39.8 µM [inhibitor, partial curve, poor fit]
28 | COc1cccc(-c2nc(-c3ccc(NC(=O)c4ccncc4)cc3)no2)c1 | – | inconclusive: 44.7 µM [inhibitor, partial curve, poor fit]
29 | CCC1CN(C(=O)N2CCC(C(=O)NCc3cccc(F)c3)CC2)c2cc(C)ccc2O1 (stereo unspecified) | – | inconclusive: 79.4 µM [inhibitor, partial curve]
30 | CCN1CCc2c(sc(NC(=O)c3ccc(S(=O)(=O)N(CC)c4ccccc4)cc3)c2C(N)=O)C1 | – | inconclusive: 79.4 µM [inhibitor, partial curve]
31 | Oc1ccc(/C=N/N=C/c2ccc(O)cc2)cc1 | inactive: -15.6% | –
32 | Cc1cc2nc(-c3ccc(SCC(=O)Nc4ccc(S(=O)(=O)N5CCCC5)cc4)nc3)[nH]c2cc1C | – | inconclusive: 89.1 µM [inhibitor, single point]
33 | O=C1c2ccccc2C(=O)c2c1cccc2N1CCN(CCO)CC1 | – | inconclusive: 79.4 µM [inhibitor, single point]
34 | CN(C)c1ncc(C2=C(Cl)C(=O)C(N3CCCC3)=C(Cl)C2=O)s1 | – | active: 50.1 µM
35 | CC1=NN(c2ccc(Br)cc2)C(=O)/C1=C/c1ccc(-c2ccccc2C(=O)O)o1 | – | inconclusive: 31.6 µM [inhibitor, full curve, poor fit]
36 | Cc1ccc(NC(=O)c2ccc(C)c(S(=O)(=O)N3CCCCCC3)c2)cc1 | inactive: -2.19% | –
37 | COc1cc(/C=N/NC(=O)c2ccncc2)ccc1OCC(=O)Nc1ccccc1 | inactive: 9.48% | –
38 | O=C(O)c1ccccc1-c1c2cc(I)c(=O)c(I)c-2oc2c(I)c(O)c(I)cc12 | – | active: 39.8 µM
39 | CC(=O)O[C@@H]1[C@H](OC(=O)CC(C)C)c2c(ccc3ccc(=O)oc23)OC1(C)C | – | inconclusive: 79.4 µM [inhibitor, partial curve, poor fit]
40 | COc1ccc(NC(=O)CN(C)C(=O)c2cc(-c3ccco3)nc3ccccc23)cc1 | – | inconclusive: 79.4 µM [inhibitor, partial curve]
41 | Cn1cc(-c2nc3ccccc3[nH]2)c2ccccc21 | – | inconclusive: 35.5 µM [inhibitor, partial curve, poor fit]
42 | CCn1c(C)nc2cc(C(=O)OC(C(F)(F)C(F)F)C(F)(F)C(F)F)ccc21 | – | inconclusive: 89.1 µM [inhibitor, single point]
43 | C=CCOC(=O)C1=C[C@H](c2ccc(C(F)(F)F)cc2)[C@@H](CCCO)[C@H](OCC)O1 | – | inconclusive: 50.1 µM [inhibitor, partial curve, poor fit]
44 | O=C1Nc2ccccc2/C1=N\N=C\c1ccc(O)c(O)c1 | – | active: 12.6 µM

Row | SMILES | activity change, negative = inhibition | Potency
45 | COc1cccc2c3cccc(OC)c3c3[nH]cnc3c12 | – | inconclusive: 22.4 µM [inhibitor, full curve]
46 | CC1CC(C)CN(C(=O)C(C)N2CCN(S(=O)(=O)c3ccc(C(F)(F)F)cc3)CC2)C1 (stereo unspecified) | – | inconclusive: 79.4 µM [inhibitor, partial curve, poor fit]
47 | CN(C)CCCSc1nc(-c2ccccc2)nc2c1CCC2 | – | inconclusive: 89.1 µM [inhibitor, partial curve, poor fit]
48 | COc1cccc2c1C(=O)c1c(O)c3c(c(O)c1C2=O)CC(O)(C(C)=O)CC3OC1CC(N(C)C)C(O)C(C)O1 (stereo unspecified) | – | active: 31.6 µM
49 | CCC1(c2ccccc2)NC(=O)N(CC(=O)Nc2cc(S(=O)(=O)N3CCCCCC3)ccc2OC)C1=O (stereo unspecified) | – | inconclusive: 17.8 µM [inhibitor, partial curve, poor fit]
50 | CCN(CC)c1nn2c(=O)c(C(=O)NCc3ccccc3Br)cnc2s1 | inactive: 7.69% | –
51 | O=C(CI)Nc1cccc2cccnc12 | – | inconclusive: 22.4 µM [inhibitor, partial curve, poor fit]
52 | ON=C1c2cc(OCCN3CCCCC3)ccc2-c2ccc(OCCN3CCCCC3)cc21 | – | active: 31.6 µM
53 | Nc1nc(C23CC4CC(CC(C4)C2)C3)[nH]c(=O)n1 | – | inconclusive: 15.8 µM [inhibitor, full curve, poor fit]
54 | O=C(Nc1nnc(C2CCCCC2)s1)C1CCN(C(=O)c2ccco2)CC1 | inactive: 12.6% | –
55 | COc1ccc(CCN2C(=S)N(C)C(=O)C2CC(=O)Nc2ccc(F)cc2)cc1 (stereo unspecified) | – | inconclusive: 44.7 µM [inhibitor, partial curve, poor fit]
56 | CCOc1ccc2[nH]c3c(=O)n(CCC4=CCCCC4)cnc3c2c1 | inactive: 9.85% | –
57 | CSc1nnc(CSCc2ccc(Cl)cc2Cl)n1-c1ccccc1 | – | inconclusive: 89.1 µM [inhibitor, single point]
58 | O=S(=O)(c1cccs1)N1CCN(c2nc(-c3cccs3)nc3ccccc23)CC1 | inactive: 2.12% | –
59 | CN(C)c1ccc2nc3c(=O)[nH]c(=O)nc-3n(CC(O)C(O)C(O)CO)c2c1 (stereo unspecified) | – | active: 44.7 µM
60 | CCN(CC)CCCNc1oc(-c2ccc(OC)cc2)nc1C#N | inactive: -2.67% | –
61 | O=C(Nc1ccc(Cl)cc1)OCCn1nnnc1C(c1ccccc1Cl)N1CCOCC1 (stereo unspecified) | inactive: -9.08% | –
62 | COc1cc(/C=N/NC(=O)c2ccc3c(c2)OCCO3)c(Br)c(Br)c1O | – | inconclusive: 12.6 µM [inhibitor, partial curve, poor fit]
63 | CC(C)n1c(SCC(=O)Nc2ccccc2N2CCOCC2)nc2c1c(=O)n(C)c(=O)n2C | – | inconclusive: 44.7 µM [inhibitor, partial curve, poor fit]
64 | NS(=O)(=O)c1ccc(N=Nc2ccc(=O)[nH]c2O)cc1 | – | active: 79.4 µM
65 | CCOC(=O)C1=C(O)/C(=C/c2ccc(-c3ccccc3C(=O)O)o2)SC1=Nc1ccc(OC)cc1 | – | inconclusive: 7.94 µM [inhibitor, partial curve]
66 | CCc1ccc(C(c2ccccc2)c2c[nH]c3ccc(C)cc23)s1 (stereo unspecified) | – | inconclusive: 35.5 µM [inhibitor, partial curve, poor fit]
